Measurements taken from PubChem BioAssay AID2546 (National Center for Advancing Translational Sciences (NCATS), 2010).
Several values for one entry are separate records, joined by “and”; a condition that tells them apart may be missing. Equal values may be shown once. The whole screen tested about 310,000 compounds, of which about 11,000 (3.5%) were called active. This list was built around the results that the source calls inconclusive (neither active nor inactive); the mix of calls is not that of the screen. Calls follow the shape of the dose curve; as a rule, active = well fitted inhibition curve with a large enough effect; inconclusive = small, poorly fitted or top-dose-only effect, or effect the other way; inactive = flat fitted curve, though single readings scatter. Potencies of inconclusive entries are doubtful fits and often do not repeat.

Assay: VP16 counterscreen qHTS for inhibitors of ROR gamma transcriptional activity;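 also: Gal4-VP16 expression switched on by copper sulfate through the metallothionein promoter; nearly all actives have a fitted effect of over 50% in size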
Conditions: Drosophila S2 Gal4-VP16 UAS-luciferase, luminescence, 20 h; activity, negative = inhibition: at 53.6 µM (top of the series)
% is scaled to controls: 0 for no effect and ±100 for the full control effect; potency is read from the fitted curve at half-maximal effect; tags tell the direction and shape of the fitted curve.

Row | SMILES | Potency | activity, negative = inhibition
1 | CCOc1ccc2nc3cc(N)ccc3c(N)c2c1 | inactive and inconclusive: 14.1 µM [inhibitor, partial curve] | 
2 | Cc1ccccc1N1CC(C(=O)NC2CCCC2)CC1=O (stereo not given) | inconclusive: 35.5 µM [inhibitor, single point] | 
3 | NS(=O)(=O)c1ccc(CCNC(=S)Nc2ccccc2)cc1 | inconclusive: 0.891 µM [inhibitor, full curve, poor fit] | 
4 | CC1(C)Cc2c(sc3nc(=S)[nH]c(N)c23)CO1 | active: 17.8 µM | 
5 | Cc1ccccc1NS(=O)(=O)c1c(C(=O)N2CCCCCC2)c(C)n(C)c1C | inconclusive: 3.16 µM [inhibitor, single point] | 
6 | Cc1c(C(=O)N2CCN(Cc3ccc4c(c3)OCO4)CC2)sc2ncnc(N3CCN(c4ccccc4)CC3)c12 | inconclusive: 11.2 µM [inhibitor, partial curve] | 
7 | NNC(=S)Nc1ccc(Cl)cc1 | inconclusive: 22.4 µM [inhibitor, single point] | 
8 | CN1C(=O)C(CC(=O)Nc2ccc(F)cc2)N(Cc2cccs2)C1=S (stereo not given) | inconclusive: 22.4 µM [activator, single point] | 
9 | Cc1ccc(NCc2nc3ccccc3n2C)c(C)c1 | active: 10 µM | 
10 | O=C(NOC(=O)c1ccccc1Cl)c1cccs1 |  | inactive: -2.71%
11 | O=C(Nc1nnc(-c2ccc(Cl)cc2)o1)c1ccccc1Br | active: 4.47 µM | 
12 | COc1cc(/C=C/C(=O)c2c(O)ccc3c(C)cc(=O)oc23)ccc1O | inconclusive: 35.5 µM [inhibitor, single point] | 
13 | COC(=O)C1=C(C(=O)OC)[C@@H]2N(Cc3ccccc3)c3ccccc3[C@@]23C[C@@H](C(=O)OC)N(C(=O)c2cccs2)C3=N1 | active: 17.8 µM | 
14 | Cc1ccc(OCc2cc(C(=O)N(C)CC3CCOCC3)no2)cc1C |  | inactive: -6.15%
15 | CC1=CC(=Nc2c(C)n(C)n(-c3ccccc3)c2=O)C=C(C)C1=O | inconclusive: 14.1 µM [inhibitor, single point] | 
16 | CC1=C(C(N)=O)C(c2cccnc2)n2nc(-c3cccc(C)c3)nc2N1 (stereo not given) | inconclusive: 35.5 µM [inhibitor, single point] | 
17 | COc1ccc(C2=NN(C(=O)c3ccccc3C(=O)O)C(c3ccccc3O)C2)cc1 (stereo not given) | inconclusive: 14.1 µM [activator, single point] | 
18 | COc1ccc(-n2c(COc3ccc(C)cc3)nnc2SCC(=O)O)cc1 |  | inactive: -4.64%
19 | CC(C)CC(=O)Nc1ccc2oc(-c3cccnc3)nc2c1 |  | inactive: 1.04%
20 | O=S(=O)(/N=C(/Nc1ccccn1)c1ccccc1)c1ccccc1 | inconclusive: 35.5 µM [inhibitor, single point] | 
21 | Cc1cc(C)nc(NC(=O)c2ccc3c(c2)OCO3)c1 |  | inactive: -16.6% [at 10 µM]
22 | CCc1cc2c(N3CCCCC3)ncnc2s1 | active: 35.5 µM | 
23 | COc1ccc(C(=O)NCCn2ccc3ccccc32)c(OC)c1 | inconclusive: 22.4 µM [inhibitor, single point] | 
24 | Cc1ccc(NC(=O)Nc2nnc(Cc3ccc([N+](=O)[O-])cc3)s2)cc1C | inconclusive: 20 µM [inhibitor, single point] | 
25 | COc1ccc(C2CC(O)(c3ccccc3)Oc3cc(OC)c(OC)c(OC)c32)cc1 (stereo not given) | inconclusive: 20 µM [inhibitor, partial curve, poor fit] | 

Row | SMILES | Potency | activity, negative = inhibition
26 | Cc1[nH]c2ccccc2c1N=Nc1ccccc1F |  | inactive: -1.8%
27 | O=C(/C(=N/O)n1cncn1)c1ccccc1Cl |  | inactive: -0.313%
28 | CCCCCn1c(=O)[nH]c2cc(C(=O)N3CCN(CC)CC3)ccc2c1=O |  | inactive: 1.44%
29 | Oc1ccc(N=Nc2ccc(Br)cc2)c(O)c1 | inconclusive: 35.5 µM [inhibitor, single point] | 
30 | COc1ccc(OCc2cc(C(=O)NC(C)Cc3cnccn3)no2)c(Cl)c1 (stereo not given) | inconclusive: 35.5 µM [inhibitor, single point] | 
31 | CS(=O)(=O)NCCCNc1ccc(Cl)cc1[N+](=O)[O-] |  | inactive: 2.87%
32 | CCOc1ccc(-n2c(-c3ccccc3)c[n+]3c2CCC3)cc1 | active: 8.91 µM | 
33 | CCOc1ccc(C(=S)N2CCN(C)CC2)cc1 | inconclusive: 5.62 µM [activator, partial curve] | 
34 | O=C(CCCN1C(=O)/C(=C/c2ccccc2Cl)SC1=S)NNC(=O)c1ccc(Cl)cc1 | inconclusive: 2.82 µM [inhibitor, full curve] | 
35 | Cc1ccccc1Cn1cnc2c(nnn2Cc2ccc(F)cc2)c1=O | inconclusive: 12.6 µM [inhibitor, single point] | 
36 | COc1ccc(-n2nc(C#N)c(Cl)cc2=O)cc1 | active: 12.6 µM | 
37 | CSc1ccc2c(c1)N(CCC1CCCCN1C)c1ccccc1S2 (stereo not given) | inconclusive: 22.4 µM [inhibitor, single point] | 
38 | Cc1cccc(OCCN2CSC(=S)N(C)C2)c1 | active: 14.1 µM | 
39 | COC(=O)n1c(=O)oc2ccccc21 |  | inactive: 3.58%
40 | COc1ccc2nc3sc(C(=O)NCc4cccs4)c(N)c3cc2c1 | inconclusive: 12.6 µM [inhibitor, single point] | 
41 | CCN(CC)c1ccc(/C=N/Nc2nc3ccccc3[nH]2)cc1 | active: 3.98 µM | 
42 | CCC(O)C1CCN(C(=O)c2cc(COc3ccc(F)cc3F)on2)CC1 (stereo not given) |  | inactive: -10.8%
43 | Cc1ccc2c(-c3ccc([N+](=O)[O-])cc3)cc(=O)[nH]c2c1 |  | inactive: 1.66%
44 | CC(C)(C)c1ccc(OCCCC(=O)NC2=NCCS2)cc1 | inconclusive: 35.5 µM [inhibitor, single point] | 
45 | CCc1ccc(NC(=S)NC2CC3CCCC(C2)N3Cc2ccccc2)cc1 (stereo not given) | active: 4.47 µM | 
46 | CC(=O)N1c2ccc(S(=O)(=O)N3CCC(C(=O)Nc4cccc(C(F)(F)F)c4)CC3)cc2CC1C (stereo not given) | inconclusive: 35.5 µM [inhibitor, single point] | 
47 | CCOc1ccc2cc(C3CC(c4ccco4)=NN3S(C)(=O)=O)c(Cl)nc2c1 (stereo not given) |  | inactive: 7.61%
48 | COc1cccc(NC(=O)c2ncc(Cl)c(Cl)c2Cl)c1 | inconclusive: 5.62 µM [activator, single point] | 
49 | CNC(=O)CC1C(=O)N(c2ccc(OC)cc2)C(=S)N1NC(=O)c1cccc(F)c1 (stereo not given) | inconclusive: 2.82 µM [inhibitor, single point] | 
50 | O=C1C(Cl)=C(NCCCO)C(=O)c2ccccc21 | inconclusive: 25.1 µM [inhibitor, single point] | 

Row | SMILES | Potency | activity, negative = inhibition
51 | COc1ccc(-n2c(=S)[nH]c3cc(C(=O)NCc4cccnc4)ccc3c2=O)cc1 | inconclusive: 1.58 µM [inhibitor, partial curve] | 
52 | c1ccc(NCc2nc3ccccc3n2CCOc2ccccc2)cc1 | inconclusive: 35.5 µM [inhibitor, single point] | 
53 | COc1ccc(N(CC(=O)N2CCN(Cc3ccccc3)CC2)S(C)(=O)=O)cc1Cl |  | inactive: 7.24%
54 | O=C(CCc1ccccc1)Nc1cccc(-c2nnc(-c3ccco3)o2)c1 | inconclusive: 35.5 µM [inhibitor, single point] | 
55 | COc1ccc(N2CCN(C(=O)c3ccc4c(=O)n(CCc5ccc(OC)c(OC)c5)c(=O)[nH]c4c3)CC2)cc1 |  | inactive: -8.23%
56 | CCOc1ccccc1N1CCN(Cc2ccco2)CC1 |  | inactive: -16.5%
57 | Cc1c(/C=C/C(=O)c2ccc(Cl)s2)cnn1C | inconclusive: 2.82 µM [activator, single point] | 
58 | COc1ccc(Cc2nnc(NC(=O)CSc3ccc(C)cc3)s2)cc1 | inconclusive: 35.5 µM [inhibitor, single point] | 
59 | COc1ccc2c3c([nH]c2c1)C(C)N(CCC(=O)NN)CC3 (stereo not given) |  | inactive: 0.712%
60 | Oc1ccc(-c2[nH]ncc2-c2ccc(Br)cc2)c(O)c1 |  | inactive: -9.15%
61 | Cc1ccc2[nH]c(=O)c(CN(Cc3ccccc3)C(=S)NCCCN(C)C)cc2c1 | inconclusive: 3.98 µM [inhibitor, partial curve, poor fit] | 
62 | COc1cccc(NC(=O)c2ccc(CN3CCN(c4ccccc4)CC3)cc2)c1 |  | inactive: -28.1%
63 | N#Cc1ccsc1NC(=O)c1cccc(-n2cnnn2)c1 |  | inactive: -13.5%
64 | COc1ccc(C(=O)CSc2cc(C)nc3nc(C)nn23)cc1OC | inconclusive: 35.5 µM [inhibitor, single point] | 
65 | NC(N)=Nc1nc(CSCC/C(N)=N/S(N)(=O)=O)cs1 | inactive | 
66 | CCOc1c(Br)cc(C2CC(=O)Nc3cc(OC)c(OC)cc32)cc1OC (stereo not given) | inconclusive: 22.4 µM [inhibitor, single point] | 
67 | CCOC(=O)c1c(NC(=O)CSc2nnc(CNc3ccc(F)cc3)o2)sc(C(C)=O)c1C | inconclusive: 35.5 µM [inhibitor, single point] | 
68 | COc1cccc(N2CCN(C(=O)C3CCCN(S(=O)(=O)c4cnc[nH]4)C3)CC2)c1 (stereo not given) | inconclusive: 35.5 µM [inhibitor, single point] | 
69 | CC1=CC2=C(OC1N(C)C)c1cccc3cccc(c13)C2=O (stereo not given) | inconclusive: 25.1 µM [inhibitor, single point] | 
70 | O=C(N/N=C1\C(=O)c2cccc3cccc1c23)c1ccc(O)cc1 | active: 0.316 µM | 
71 | COc1ccccc1-c1ocnc1C(=O)N1CCN(C(=O)C(c2ccccc2)c2ccccc2)CC1 |  | inactive: 9.14%
72 | CC1CCc2nc(NC(=O)Cc3cccs3)sc2C1 (stereo not given) | inconclusive: 35.5 µM [inhibitor, single point] | 
73 | CCNc1ncc2nc(-c3ccccc3)c(=O)n(CCc3ccccc3)c2n1 |  | inactive: 5.83%
74 | COC(=O)C(Cc1ccc(O)cc1)NC(=O)c1ccccc1 (stereo not given) | inconclusive: 5.01 µM [inhibitor, partial curve] | 
75 | COc1ccc(-c2nnc(NC(=O)c3ccc(S(=O)(=O)N(C)CC4CCCO4)cc3)o2)c(OC)c1 (stereo not given) | active: 1 µM | 
